According to the RNAGym collection of RNA variant scans (doi:10.7554/elife.90254):
Read counts are not given, so values of variants with three or more changes are uncertain.

B1: LINE1-mini (parent)
chain: GGCAGAGCUCAACACAGCGUGGCAAAGUGGCUGUGGCUAGACUGCC

Variants of: B1
Assay: self-cleavage, relative activity (ratio to wild type); higher = more cleavage; in vitro, sequencing; the parent is a self-cleaving ribozyme

| Variant | self-cleavage |
| --- | --- |
| G2A G5C G7U | 0.46 |
| G2A G27U C42U | 0.11 |
| G2A C18U G22A U28C G36U U38A | 0.03 |
| G2C A4U A41C C45A | 0.03 |
| G2A G21U G33A G35C | 0.11 |
| G2A G7U G33C G40A | 0.26 |
| G2A C23A C42U | 1.39 |
| G2A C23U C31U A39G | 0.13 |
| G2A C13G G40U A41U | 0.14 |
| G2C A4U C31U | 0.03 |
| G2A G7U C23G | 0.13 |
| G2A G17A G19U U20G A24C | 0.08 |
| G2A C15A G33A G35A | 0.04 |
| G2A U9G C15G A24G | 0.15 |
| G2A G35A C46A | 0.36 |
| G2C A6C G29A U34C | 0.02 |
| G2A G22U A24U | 0.07 |
| G2A C23U U34A | 0.24 |
| G2A G7A A11C G29C U34C G36U A41C C45U | 0 |
| G2A C15G G21A G40A | 0.03 |
| G2A U9A G22U G29C G33C | 0.06 |
| G2A G7C A24U G30A G36A | 1.21 |
| G2A C18G C31U C45U | 0.04 |
| G2A C15A A25U C31G U34C A39U | 0.29 |

| Variant | self-cleavage |
| --- | --- |
| G2A G30C G40A | 0.06 |
| G2A C15A G17C | 0.21 |
| G2A C31U G44A | 0.11 |
| G2C A6C A25G U43A C46A | 0.01 |
| G2A U32C A39U G40C | 0.09 |
| G2A G5U C8G | 0.04 |
| G2C A4U A12U | 0.08 |
| G2A U20G A26C C46G | 0.14 |
| G2C A6G A12G G27A G40U | 0.03 |
| G2A G27U C31A | 0.19 |
| G2A G30C G33A | 0.18 |
| G2A G17U C37U U38C A39G G40C | 0.04 |
| G2A G22U U38C | 0.32 |
| G2A C23G G30A | 0.27 |
| G2A G21C A39C | 0.04 |
| G2C A4G C13U A41U | 0.02 |
| G2A C13U C45A | 0.02 |
| G2A U9C A16G G21A G30A | 0.03 |
| G2A C18A G22C A24C U28A | 0.09 |
| G2C A4G A14G U34G G44U | 0.03 |
| G2A G19A A25U U32G U34A | 0.06 |
| G2C A4C U28C A41U | 0.08 |
| G2C A4U A14U | 0.07 |
| G2A G5U A11C A14U G30A C37U A39U | 0.03 |

| Variant | self-cleavage |
| --- | --- |
| G2A G21U G36C | 0.14 |
| G2A G5U G44A | 0.13 |
| G2A U20C U34C C42G | 0.11 |
| G2A U20G G22U A26C | 0.17 |
| G2A G27A U28A C42G | 0.02 |
| G2C A6C G33U | 0.01 |
| G2A G35U A39G | 1.14 |
| G2A C13G G22C C23U G35A | 1.12 |
| G2A C13A C15U G21U C31U U43A | 0.63 |
| G2C A4C G17C | 0 |
| G2C A4G A14G U34C | 0.09 |
| G2A U9A U34G | 0.18 |
| G2A G5U A6U G7U C15U G36A | 0.62 |
| G2A C15G A16G G17C C18A G27C G33U | 0.05 |
| G2A U9A G27C G40A | 0.12 |
| G2A U9C A26U U43C | 0.02 |
| G2A U9C A14G | 0.04 |
| G2A G7C U38G | 0.01 |
| G2A G5U C8G G17U U32G A41G | 0.02 |
| G2C A6C G7A G30A | 0.48 |
| G2A U20C G21C G44C | 0.14 |
| G2A G5C C15G C18A | 0.04 |
| G2A G27C C45A | 0.38 |
| G2A G22U A39G | 0.55 |

| Variant | self-cleavage |
| --- | --- |
| G2C A4U C10A G21C A24U A26G | 0.01 |
| G2C A6G A11G C13G G27C G29C G44C | 0.01 |
| G2A C31A G33U | 0.16 |
| G2A G22A A25G | 0.25 |
| G2C A4C G35A | 0.19 |
| G2A C13A C15G U20G | 0.08 |
| G2A G22C G40U | 0.05 |
| G2A G5U G33U | 0.13 |
| G2A C13G A14U A24U G27U G33A U43G | 0.01 |
| G2A G5U C8A C18A | 1.85 |
| G2C A4G G21U A26U | 0.03 |
| G2A U20G C42U | 0.2 |
| G2A U28C U34G C46G | 0.15 |
| G2A G27A C37U | 0.18 |
| G2A G5A G7C G29A C31U | 0.18 |
| G2A G5C G27C U38G A41G | 0.03 |
| G2A G22C G35A U38G | 0.02 |
| G2A G17A C23U A26G G27A | 0.44 |
| G2A U20C U38G | 0.02 |
| G2A G22C G27A U32A G33A | 0.37 |
| G2A G5C C15U A39U | 0.04 |
| G2A C15G C18G A24C G27A | 0.17 |
| G2A C23G C42A | 0.49 |
| G2A G7C G22U U32G G44U | 0.38 |

| Variant | self-cleavage |
| --- | --- |
| G2A C37A C46G | 0.2 |
| G2C A6C C42G | 0.13 |
| G2A G5U G33A U38C | 0.02 |
| G2A C42G C45U | 0.15 |
| G2A G5C U20C U28A | 0.16 |
| G2A C18A C45A | 1.06 |
| G2A U9G U20C | 0.18 |
| G2C A6G C8A A11G A12U C15A A24U G36U G44C | 0.01 |
| G2A C18G G29C C46U | 0.11 |
| G2C A4C A24C G36U | 0.05 |
| G2A C13G C42U | 0.13 |
| G2C A4U C10A U28G A41G G44C C46A | 0.01 |
| G2A C15A C18G C23U | 0.08 |
| G2A C31A G44C | 0.04 |
| G2A U9G C18U G21U A24C C37U U38G | 0.05 |
| G2A C15A C18A U34C | 0.07 |
| G2A G5A C15U G36C | 0.36 |
| G2A G21C G22C U28G | 0.19 |
| G2A G7C C8A A16C | 0.84 |
| G2A C13U G40A G44U | 0.28 |
| G2A G5A G22U G40C | 0.47 |
| G2A G17C C23G G29A C45U | 0.2 |
| G2A C13U C15G G22C G33A U43C C46G | 0.09 |
| G2A G7U A12G | 0.01 |

| Variant | self-cleavage |
| --- | --- |
| G2A U9G G22A A25G C46A | 0.32 |
| G2C A4C G5A C13G A16C | 0.02 |
| G2A G19C A39G | 0.1 |
| G2A G19A C31G U34A | 0.1 |
| G2A U28G G30C | 0.07 |
| G2A G19U C23U G35C | 0.2 |
| G2A G7C C8U G19U G33U G40C C42U | 0.26 |
| G2A G5U G29U | 0.33 |
| G2A G22C G35U C42U | 0.94 |
| G2A C13G G35C A39G | 0.03 |
| G2A C13A C46A | 0.14 |
| G2A C13A U20A G29U | 0.16 |
| G2C A4U A16C A25C A26G C37A | 0.01 |
| G2A U20A C23G G40C C42G | 0.03 |
| G2A C15U G21A U34G | 0.06 |
| G2A C31A C45A | 0.13 |
| G2A C15U A24G | 0.3 |
| G2A C18G G33A | 0.08 |
| G2A C18A G35A U38A | 0.13 |
| G2A G30A U38C C45A | 0.23 |
| G2A G22U G29C G36C A39C C42G | 0.03 |
| G2A C37G U38C | 0.11 |
| G2A C13G C23G | 0.92 |
| G2A U9A G17C C23G G33U | 0.06 |

| Variant | self-cleavage |
| --- | --- |
| G2C A4G C8G A41U | 0.13 |
| G2C A6C U20C C23U G33C U34G | 0.01 |
| G2A U20A G27U | 0.35 |
| G2A G5C G19A C37A | 0.2 |
| G2A G19A A24C | 0.47 |
| G2A G17A G19A | 0.25 |
| G2C A6C C15A C37G G40A | 0.01 |
| G2C A4U C18U C45U | 0.01 |
| G2A G5C G17C G22A G29A C45G C46G | 0.03 |
| G2A U20A G21C G27U G44U | 0.07 |
| G2A U28C C31U G36A | 0.36 |
| G2A U20A A26U | 0.16 |
| G2A U9C A16C G19U G33C | 0.02 |
| G2A C13U U43A | 0.09 |
| G2A G7U A14C | 0.6 |
| G2A C15A G17A G27A | 0.48 |
| G2A G21A C31G G33U A39G | 0.13 |
| G2A C23G U38C | 0.2 |
| G2A C42A C46U | 0.14 |
| G2A G7C G35C | 0.16 |
| G2A G7C A24C G44C | 0.3 |
| G2C A4U G19A A24G | 0.09 |
| G2A U20G C46A | 0.27 |
